Laboratory results reported in PubChem BioAssay AID602342 (Broad Institute, 2012).
Out of some 340,000 compounds screened, about 1,000 (0.29%) were called active. Inconclusive means that the source gave no clear call. Such entries were picked first, then a sample of the others.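 Rule for the calls: active = mean replicate activation score at least 90 and every replicate individually at or above 90; inconclusive = only one of the two criteria met; inactive = neither criterion met.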 Where a SMILES comes first, the peptide text is derived from it. [ ]: non-standard residue; d: D form. The star is where a group is joined. ξ: configuration not given here. ξNMe2Val = CC(C)C(C(=O)*)N(C)C; NMeV = CN[CH](C(=O)O)C(C)C; NHBn = c1ccc(CN*)cc1

Assay: miR-122 Renilla sensor signal increase in Huh7, primary screen, miR-122 inhibitor project, cell-based, single point, plate reader (AID 602342);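 note: higher luciferase means less miR-122 activity so hits act as miR-122 inhibitors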
Conditions: Huh7 miR-122 Renilla luciferase sensor, 48 h, hits give high values; at 12.5 µM unless noted

**Q.** With `CC(C)C(NC(=O)C(C(C)C)N(C)C)C(=O)N(C)C(C(=O)N1CCCC1C(=O)N1CCCC1C(=O)NCc1ccccc1)C(C)C` (stereo not drawn) (ξNMe2Val-V[NMeV]PP-NHBn; configuration not given here) as the compound, how does the activation (reporter increase) read?
**A.** The activation (reporter increase) was inconclusive: 95%.

**Q.** Which activation (reporter increase) does the source give for `CCOc1ccccc1NC(=O)N1CCC2(CC1)OCCO2` here?
**A.** Its activation (reporter increase) is inconclusive: 115%.

**Q.** For `O=P(Nc1ccccc1)(Nc1ccccc1)Oc1ccc(Cl)cc1`, which activation (reporter increase) is on record?
**A.** Its activation (reporter increase) is active: 322%.

**Q.** With `COc1ccc(C(=O)Nc2cccc(S(=O)(=O)NCc3ccco3)c2)cc1` as the compound, how does the activation (reporter increase) read?
**A.** Its activation (reporter increase) is inconclusive: 96.6%.

**Q.** For `CCCCn1nnnc1C(c1cccc(OC)c1OC)N1CCC2(CC1)C(=O)NCN2c1ccccc1` (stereo not drawn), which activation (reporter increase) is on record?
**A.** The activation (reporter increase) was inconclusive: 91.7%.

**Q.** With `C=C1C(=O)OC2C1CCC(C)C1(O)C=CC(=O)C21C` (stereo not drawn) as the compound, how does the activation (reporter increase) read?
**A.** The activation (reporter increase) was inconclusive: 111%.

**Q.** Which activation (reporter increase) does the source give for `CCN(CC)S(=O)(=O)c1ccc(C)c(NCC(=O)Nc2ccc(C#N)c(Cl)c2)c1` here?
**A.** Its activation (reporter increase) is active: 119%.

**Q.** Which activation (reporter increase) does the source give for `NCCc1ccc(OCc2ccccc2)c(OCc2ccccc2)c1` here?
**A.** Its activation (reporter increase) is inactive: -0.382%.

**Q.** With `O=C1NC(=O)[C@]2(Cc3ccccc3N3CCN(c4ccccc4)CC32)C(=O)N1c1ccccc1` (stereo partly drawn) as the compound, how does the activation (reporter increase) read?
**A.** The activation (reporter increase) was inactive: -5.33%.

**Q.** With `Cc1nn(Cc2ccc(Cl)cc2Cl)c(Cl)c1C(=O)Nc1ccc(OC(F)F)cc1` as the compound, how does the activation (reporter increase) read?
**A.** Its activation (reporter increase) is inactive: -2.92%.

**Q.** With `COc1cc2c(c(OC)c1OC)-c1ccc(O)c(=O)cc1C(NC(C)=O)CC2` (stereo not drawn) as the compound, how does the activation (reporter increase) read?
**A.** The activation (reporter increase) was active: 96.8%.

**Q.** With `Cc1ccc(C(=O)Nc2ccc(Cl)cc2C(=O)c2ccccc2)cc1` as the compound, how does the activation (reporter increase) read?
**A.** Its activation (reporter increase) is active: 114%.

**Q.** With `COC(=O)[C@@H]1[C@@H](CO)[C@@H]2Cn3c(ccc(C4=CCCC4)c3=O)[C@H]1N2S(=O)(=O)c1cn(C)cn1` as the compound, how does the activation (reporter increase) read?
**A.** The activation (reporter increase) was inactive: 7.65% [at 16.7 µM].
